We go through 110 compounds from PubChem BioAssay AID488969 (Vanderbilt High Throughput Screening Facility, 2010).

In all, about 110,000 compounds were measured (“z-score”: median about -0.1, highest 2% from about 2 on). This is one part of the list. Calls of active or inactive are those of the source.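 The calls were made as follows: active = z-score in the third read window above 3 or below -3; inactive = the rest.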

This test concerns the target Metabotropic glutamate receptor 8 (Rattus norvegicus) (UniProt P70579). The experiment in a line: rat mGluR8 modulators via GIRK flux, primary screen, cell-based, thallium flux, HTS (AID 488969). The conditions noted are these: HEK293 rat mGluR8, GIRK (G protein-gated inwardly rectifying potassium channel) thallium flux, FluoZin2; at 10 µM; stronger effect = higher value; submaximal glutamate (EC20) added with thallium.
Chain of UniProt P70579 (P70579 whole entry, looked up): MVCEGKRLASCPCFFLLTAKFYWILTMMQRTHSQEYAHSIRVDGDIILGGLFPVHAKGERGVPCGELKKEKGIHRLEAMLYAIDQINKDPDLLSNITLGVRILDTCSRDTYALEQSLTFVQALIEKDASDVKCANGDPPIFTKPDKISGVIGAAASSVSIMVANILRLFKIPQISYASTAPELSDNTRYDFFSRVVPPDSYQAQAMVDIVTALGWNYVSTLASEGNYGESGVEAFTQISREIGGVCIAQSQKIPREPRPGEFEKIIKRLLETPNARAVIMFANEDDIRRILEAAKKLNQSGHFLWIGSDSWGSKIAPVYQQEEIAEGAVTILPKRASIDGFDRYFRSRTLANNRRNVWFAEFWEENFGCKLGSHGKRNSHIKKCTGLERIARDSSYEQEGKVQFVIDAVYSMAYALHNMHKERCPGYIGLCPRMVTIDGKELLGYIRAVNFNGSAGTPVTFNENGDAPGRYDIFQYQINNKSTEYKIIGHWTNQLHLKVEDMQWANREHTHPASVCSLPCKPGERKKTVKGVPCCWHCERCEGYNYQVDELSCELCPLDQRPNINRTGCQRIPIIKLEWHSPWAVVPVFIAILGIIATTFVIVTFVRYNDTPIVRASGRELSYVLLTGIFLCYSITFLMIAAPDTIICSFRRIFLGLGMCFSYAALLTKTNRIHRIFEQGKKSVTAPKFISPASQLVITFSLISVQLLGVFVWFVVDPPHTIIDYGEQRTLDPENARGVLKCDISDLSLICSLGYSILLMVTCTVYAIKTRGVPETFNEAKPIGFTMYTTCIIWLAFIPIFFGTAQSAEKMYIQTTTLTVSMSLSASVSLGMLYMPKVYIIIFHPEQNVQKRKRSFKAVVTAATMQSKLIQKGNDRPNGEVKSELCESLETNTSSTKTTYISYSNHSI
In turn, `CSc1ccc(/C=N/NC(=O)c2cccc(O)c2)cc1` registered a z-score of -0.311.
With `O=C(NC(c1ccccc1)c1ccccc1)C1CCCN(S(=O)(=O)c2cnc[nH]2)C1` (stereo not given), the z-score came to 1.14.
For the compound `NC(=O)c1ccc(-n2nnnc2SCc2ccc(F)cc2)cc1`, the z-score worked out at 0.068.
For the compound `CCOc1cc(C(c2c(C)[nH][nH]c2=O)c2c(C)[nH][nH]c2=O)ccc1OS(=O)(=O)c1ccc(C)cc1`, the z-score was -0.266.
As to `COc1ccc(C2(C)NC(=O)N(CC(=O)Nc3ccc4c(c3)OCO4)C2=O)cc1OC` (stereo not given), the z-score was -0.168.
The same measure for `CC(=O)OC(C(=O)N1CCN(c2ccccc2F)CC1)c1ccccc1` (stereo not given): 0.124; for `N#Cc1cccc(NC(=O)COc2ccc(-n3ccnc3)cc2)c1`: 0.292; for `O=C(CCCN1C(=O)c2ccccc2C1=O)Oc1ccc(F)cc1`: -0.712.
As for `CCCc1nnc(NC(=O)Nc2ccccc2OC)s1`, the z-score is -0.185.
The same measure for `O=C(c1ccccc1Nc1ccc(SC(F)F)cc1)N1CCCCCC1`: 0.00907; for `CN(Cc1nc2ccccc2c(=O)[nH]1)Cc1cc(=O)oc2ccc3ccccc3c12`: -0.196.
The same measure for `CC(=O)CC(C)(C)S(=O)(=O)c1ccc(Oc2ccc(S(=O)(=O)C(C)(C)CC(C)=O)cc2)cc1`: -0.0659; for `Cc1nc(N2CCOCC2)[nH]c(=O)c1CCC(C)C`: -1.88; for `c1ccc2c(c1)C(=NC1CCCCC1)NC2=NC1CCCCC1`: 1.08.
`CCOC(=O)c1ccc2nc(NC(=O)c3cccs3)sc2c1` displayed a z-score of -0.513.
`CCCCCn1c(=O)[nH]c2cc(C(=O)N3CCN(Cc4ccc5c(c4)OCO5)CC3)ccc2c1=O` gave a z-score of -0.162.
Compound `CCCn1nnnc1SCC(=O)N1CCCC1` had a z-score of -0.0539.
`CCN(c1cccc(C)c1)c1nc2ccsc2c(=O)s1` had a z-score of -0.0631.
`Nc1nc(CN2CCN(Cc3ccc4c(c3)OCO4)CC2)nc(Nc2ccccc2)n1`: the z-score was -0.232.
As for `CCNc1nc(SC(C(C)=O)C(C)=O)nc(N(C)C)n1`, the z-score is -0.676.
Then `CCN(CC)S(=O)(=O)c1cc(NC(=O)COC(=O)CCc2nc3ccccc3s2)ccc1C`, with -0.0389; and `COc1ccccc1C(=O)NCCN1CCN(C(=O)c2ccccc2OC)CC1`, with 1.35.
The same measure for `CN(C(=S)NC(=O)CCCOc1ccc(Cl)cc1Cl)c1ccccc1`: active: 4; for `CC(C)(C)C(=O)Nc1cc(S(=O)(=O)Nc2ccc(Cl)cc2)ccc1Cl`: -0.577; for `O=C(/C=C/c1ccc(Cl)cc1Cl)Nc1cccc(S(=O)(=O)NC2=NCCCCC2)c1`: -1.33.
`CC1(C)CC(=O)c2sc(NC(=O)C3CC3)nc2C1` showed a z-score of -0.251.
In the case of `CCOC(=O)c1c(C)nc2c(C)cccn12`, the z-score worked out at 0.405.
`O=S(=O)(c1ccccc1)N1CCN(CC(O)COc2ccc3c(c2)CCC3)CC1` (stereo not given): the z-score stood at 0.35.
Then `O=C1OCCC1Sc1ncnc2sccc12` (stereo not given), with 0.0809; and `CCOc1c(Br)cc(/C=C2\C(=O)N(CCC#N)N=C2C)cc1OC`, with 0.542.
`CC(=O)c1cccc(NC(=O)C=C(C)C)c1` displayed a z-score of 0.155.
The same measure for `CC(C)Oc1cccc(C(=O)NC(=S)Nc2cccc(NC(=O)c3ccccc3Cl)c2)c1`: -0.41.
The same measure for `N#Cc1ccsc1NC(=O)CN1CCCCCC1`: 0.519; for `O=C(Oc1ccc(=O)n(-c2ccccc2)n1)c1cccc(Cl)c1`: -1.51; for `Cc1ccc(-c2n[nH]c(=O)c3ccccc23)cc1S(=O)(=O)NCCO`: -0.17.
Consider `Brc1ccc(-c2csc(N3CCc4ccccc4C3)n2)cc1`, for which the z-score was 0.172.
The compound `COc1ccc(C)c2sc(=NC(=O)C(C)C)n(C)c12` gave a z-score of -1.24.
In turn, `CCCNC(=S)N1CCC(c2nc3cc(C)c(C)cc3[nH]2)CC1` displayed a z-score of -0.228.
Then `CSc1nc(Cl)c(Cc2ccc(OC(C)C)cc2)c(N2CCOCC2)n1`, with -0.362; and `Cc1ccc(C)c(NC(=O)Cc2coc3cc4c(cc23)CCC4)c1`, with -0.0548; and `O=C(CSc1nc2ccccc2s1)Nn1cnnc1`, with -0.255.
Take `O=C1CN(C(=O)COC(=O)C2CCN(S(=O)(=O)c3ccccc3C(F)(F)F)CC2)c2ccccc2N1`: the z-score is -0.529.
Compound `CN1CCN(c2ccc(Cl)cc2NS(=O)(=O)c2ccccc2Cl)CC1` yielded a z-score of 0.736.
`Cc1ccc(SCCCCN2CCNCC2)cc1` showed a z-score of -0.134.
The compound `CCOC(=O)N1CCN(C(=O)c2ccc(NC(=O)CC)cc2)CC1` displayed a z-score of -0.194.
Compound `Cc1[nH]c2ccccc2c1/C=N/NC(=O)C1CC1(c1ccccc1)c1ccccc1` (stereo not given) had a z-score of -0.129.
Then `CC(C)C(=O)Nc1sc2c(c1-c1nc3ccccc3[nH]1)CCCC2`, with 0.0241; and `O=C(COc1ccc(S(=O)(=O)N2CCCC2)cc1)NCc1ccco1`, with 0.347.
The same measure for `COc1cc(NC(=S)NN2CCOCC2)cc(OC)c1`: 0.132; for `COCCCN(Cc1ccccn1)S(=O)(=O)Cc1ccccc1`: -0.148.
For `CN(C(=O)c1ccccc1C(=O)OCC(=O)NCc1ccccc1)C1CCCCC1`, the z-score is -0.146.
The same measure for `CC1(C)Cc2c(c(-c3ccco3)nc3sc4c(NCC5CCCO5)ncnc4c23)CO1` (stereo not given): -0.335; for `Cc1noc(C)c1CSc1nc2ccccc2[nH]1`: -0.0552.
Consider `O=C1CSC(c2cccnc2)N1c1ccc(F)cc1` (stereo not given), for which the z-score is 0.224.
Consider `O=C1CC(c2ccc(F)cc2)CC(O)=C1C=NCCN1CCN(C(=O)Nc2ccccc2)CC1` (stereo not given), for which the z-score is -0.646.
`CCOC(=O)Cc1csc(NC(=O)NC2(C(F)(F)F)Oc3ccc(Cl)cc3O2)n1` (stereo not given) returned a z-score of -0.0187.
As to `O=C(CSc1nnnn1-c1ccc(Cl)cc1)Nc1cccnc1Cl`, the z-score is -0.309.
Consider `N=C1c2ccccc2CN1NC(=O)c1cccc(S(=O)(=O)N2CCCC2)c1`, for which the z-score was -0.196.
As for `COc1ccccc1-c1nnc(SCC(=O)OC(C)C)o1`, the z-score is -1.43.
Consider `CC(CN1CCCCC1)OC(=O)C1c2ccccc2Oc2ccccc21` (stereo not given), for which the z-score was found to be 1.28.
The same measure for `Fc1ccc(Cn2nnnc2CN2CCN(C3CCCCC3)CC2)cc1`: 0.354; for `O=C(CSc1ccc(Cl)cc1)N1CCN(c2c(Cl)cccc2[N+](=O)[O-])CC1`: -0.078; for `O=C(c1ccccn1)N1CCN(C(=O)c2ccccn2)CC1`: -0.302.
The compound `O=C(NNS(=O)(=O)c1ccccc1)c1sccc1-n1cccc1` gave a z-score of 0.148.
Then `O=C(NCC1CCCO1)C(c1ccc(F)cc1)N(Cc1ccc(F)cc1)C(=O)Cn1nnc(-c2cccs2)n1` (stereo not given), with 2.46.
Then `CCOC(=O)C1=C(Cc2ccc(F)cc2)C(=O)c2ccccc2C1=O`, with 0.161; and `O=C(COC(=O)CNS(=O)(=O)c1c(Cl)cccc1Cl)Nc1ccccc1Sc1ccccc1`, with -0.588.
In the case of `CC(=O)Nc1ccc(SCC(=O)Nc2cc(C(C)(C)C)nn2-c2ccccc2)cc1`, the z-score worked out at 0.0545.
`CC1(C)N=C(N)NC(Nc2ccccc2)=N1`: the z-score was -0.0426.
With `CCOc1ccc(NC(=O)CSc2ncn[nH]2)c([N+](=O)[O-])c1`, the z-score is -0.158.
On to `COc1ccc(-c2cc(C(F)(F)F)n3nc(C(=O)N4CCCCC4)cc3n2)cc1`, for which the z-score was -0.582.
`CCOC(=O)N1CCN(S(=O)(=O)c2ccc3c(c2)CCN3C(=O)CC)CC1` returned a z-score of -1.1.
The same measure for `CC1(C)Cc2cccc(OCC(=O)N3CCN(c4ccc([N+](=O)[O-])cc4)CC3)c2O1`: -1.17; for `COc1ccc(NC(=O)C2CCCO2)cc1Cl` (stereo not given): -0.016; for `COC(=O)c1ccc(CNC(=O)CN(CCC(C)C)S(=O)(=O)c2ccc3c(c2)OCCO3)cc1`: -0.397.
For the compound `O=C(Cn1c(=O)oc2cc(S(=O)(=O)N3CCCCCC3)ccc21)NC1CCCCCCC1`, the z-score was -0.034.
The same measure for `Cc1cc(C)c(NC(=O)OCCN2CCOCC2)c(C)c1`: 0.317; for `CCN1CCN(c2nn3c(=O)c4ccccc4nc3c3ccccc23)CC1`: -0.106; for `Cc1ccc(C(=O)Oc2ccc(C(=O)COC(=O)c3cnccn3)cc2)cc1`: -0.169.
The same measure for `Cc1ccc(C)c(NC(=S)NCC(c2cccnc2)N2CCOCC2)c1` (stereo not given): -0.0513.
The same measure for `CCc1c(C)sc(NC(=O)c2cc(CC(C)C)on2)c1C#N`: 1; for `Cc1ccc(NC(=O)N2CCC(O)(c3ccc(Cl)cc3)CC2)cc1`: 1.93.
With `Cn1c(CCNC(=O)c2ccccc2Cl)n[nH]c1=S`, the z-score is -0.00935.
Regarding `CCOC(=O)/C=C1\SCC(=O)N1CC(=O)NC12CC3CC(CC(C3)C1)C2`, the z-score was -0.288.
For `O=C(Cc1cccc2ccccc12)N/N=C/c1ccc(Sc2nc3ccccc3s2)o1`, the z-score was determined as 0.902.
Then `Cc1nc(NC(=O)CSc2nnnn2Cc2ccccc2)sc1C`, with 0.876.
The compound `CCOC(=O)c1cnc(SC)nc1Oc1cccc(NC(=O)c2cccc(Cl)c2Cl)c1` had a z-score of -0.241.
Compound `COc1cccc(N2C(=O)N(c3ccccc3Cl)C3CS(=O)(=O)CC32)c1` (stereo not given) displayed a z-score of 0.188.
Then `O=C(N/N=C/c1cccs1)c1cccs1`, with 0.0886; and `CCn1c(SCc2ccc([N+](=O)[O-])cc2)nnc1C(C)NC(=O)c1ccccc1Br` (stereo not given), with -0.0635; and `COc1ccc2[nH]c(=O)c(CN(CCO)S(=O)(=O)c3c(C)ccc4nsnc34)cc2c1`, with -0.318.
Then `CC(C)(C)c1ccc(OCC(=O)NC2CCS(=O)(=O)C2)cc1` (stereo not given), with 0.0553; and `CN(C)c1ccc(C(CC(=O)c2ccccc2)C2CCCCC2=O)cc1` (stereo not given), with -0.0876.
Turning to `CC(NC(=O)CSc1nnc(CC(=O)Nc2ccc(Cl)c(Cl)c2)n1C)c1ccccc1` (stereo not given), the z-score was -0.212.
In turn, `O=C(O)C1CCCN1C(=O)Nc1ccccc1` (stereo not given) gave a z-score of 0.0553.
Regarding `CCOC(=O)N1CCN(c2cc(N)c([N+](=O)[O-])cc2F)CC1`, the z-score was -0.104.
As for `Cc1ccc(-c2ccc(/C=N/NC(=O)CN3CCCC3)o2)cc1Cl`, the z-score was found to be 0.409.
Then `Cc1ccc(C(=O)/C=C/c2ccc3c(c2)OCO3)o1`, with -0.964; and `Cc1ccc2[nH]c(=O)c(CN(CCc3ccccc3)Cc3nnnn3CC3CCCO3)cc2c1` (stereo not given), with -0.197.
As to `Cc1ccc(CNCc2ccccc2Cl)cc1`, the z-score stood at 0.258.
`Cc1ccc(CCN2CC(C(=O)NCCCN(C)Cc3ccccc3)CC2=O)cc1` (stereo not given) registered a z-score of 0.0485.
Then `Cc1cnc(NC(=O)CSc2ccccc2)s1`, with -0.175; and `CSc1nc(N)nc(SCC(=O)Nc2ccc(Cl)cc2)c1C#N`, with -0.243; and `O=C(O)c1cccc(COCC(F)(F)C(F)F)c1`, with -0.099.
Consider `CC(=O)/C=N/Nc1ccccc1`, for which the z-score was -0.139.
`O=C(CN1CCC(n2nnc3cc(F)ccc32)CC1)NCCc1ccccc1` registered a z-score of -0.181.
Take `COC(=O)C1=C(CSc2nnnn2C)NC(=O)NC1c1cc(C)ccc1C` (stereo not given): the z-score is -0.3.
`Cc1ccc(-n2[nH]c(C)c(/C=N/Nc3ccc([N+](=O)[O-])cc3[N+](=O)[O-])c2=O)cc1` yielded a z-score of -0.814.
As for `N#CC1=C2SCN(Cc3ccccc3)CN2C(=O)CC1c1ccccc1F` (stereo not given), the z-score was 0.115.
Then `Cc1cccc(NC(=O)c2ccccc2NC(=O)C2CCCCC2)c1C`, with -0.131.
